The record followed here is the RNAGym collection of RNA variant scans (doi:10.7554/elife.90254).

B1: OR4K15 (parent)
chain: GUUAACGGUCAUAGGCCAUGGAAACUAGGAGCACCAUUUCGCUGCCAGUGAAGAAAUGAACAAAGAAAAUCUGGGCCAGGCAGGCAUCAAAAGAAAUAGUCUUGCGCUCAACCAGAAAGUCUGUAAUCAUUUUAAGGGUA

Read counts are not given, so values of variants with three or more changes are uncertain.

This data set covers variants of B1. In words: self-cleavage, relative activity (ratio to wild type); higher = more cleavage; in vitro, sequencing; the parent is a self-cleaving ribozyme.
As for GUUAACGGUCUUAGGCCAUGGAAACUAGGAGCACCACUUCGCUGCCAGCGAAGAAAUGAACAAAGAAAAUCUGGGCCAGGCAGGCAUCAAAAGAAAUAGUCUUGCGCUCAACCAGAAAGUCUGUAAUCAUUCUAAGGGUA, the self-cleavage amounted to 1.28. Consider GUUAACGGUCUUAGGCCAUGGAAACUAGGAGCACCAUUUCGCUGCCAGUGAAGAAAUGAACAAAGAGAAUCUGGGCCAGGCAGGCAUCAAAAGAAAUAGUCUUGCGCUCAACCAGAGAGUCUGUAAUCAUUUUAAGGGUA, for which the self-cleavage is 2.45. GUUAACGGUCUUAGGCCAUGGAAACUAGGAGCACCAUCUCGCUGCCAGUGAAGAAAUGAACAAAGAAAAUCUGGGCCAGGCAGGCAUCAAAAGAUAUAGUCUUGCGCUCAACCAGAAAGUCUGUAAUCAUUUUAAGGGUA: the self-cleavage turned out to be 1.29. As for GUUAACGGUCUUAGGCCAUGGAAACUAGGAGCACCAUUUCGCUGCCAGUGAAGAAAUUAACAAAGAGAAUCUGGGCCAGGCAGGCAUCAAAAGAAAUAGUCUUGCGCUCAACCAGAAAGUCUGUAAUCAUUUUAAGGGUA, the self-cleavage turned out to be 0.69. The result for GUUAACGGUCUCAGGCCAUGGAUACUAGGAGCACCAUUUCGCUGCCAGUGAAGAAAUGGACAAAGAAAAUCUGGGCCAGGCAGGCGUCAAAAGAAAUAGUCUUGCGCUCAACCAGAAAGUCUGUUAUCAUUUUAAGGGUG reads 0.55; that for GUUAACGGUCUUAGGCCAUGGAAACUAGGAGCACCAUUUCGCUGCCAGUGAAGAAAUGAACAAAGAAAAUCUGGGCCAAGCAGGCAUCAAAAGAAAUAGUCUUGCGCUCAACCAGAGAGUCUGUAAUCAUUUUAAGGGUA, 0.09.

In the case of GUUAACGGUCAAAGGCCAUGGGAACUAGGAGCACCAUUUCGCUGCCAGUGAAGAAAUGAACAAAGAAAACCUGGGCCAGGCAGGCAUCAAAAGGAAUAGUCUUGCGCUCAACCAGAAAGUCUGUAAUCAUUUUAAGGGUA, the self-cleavage amounted to 0.3. For GUUAACGGUCUUAGGCCAUGGAAACUAGGAGCACCAUUUCGCUACCAGUGGAGAAAUGAACAAAGAAAAUCUGGGCCAGGCAGGCAUCAAAAGAAAUAGUCUUGCGCUCAACCAGAAAGUCUGUAAUCAUUUUAAGGGUA, the self-cleavage came to 0.91. GUUAACGGUCAAAGGCCUUGGAAACUAGGAGCACCAUUUCGCCGCCAGUGGAGAAAUGAACAAAGAAAAUCUGGGCCAGGCAGGCAUCAAAAGAAAUAGUCUUGCGCUCAACCAGAAAGUCUGUAAUCAUUUUAAGGGUA: the self-cleavage amounted to 1.02. In the case of GUUAACGGUCUUAGGCCAUGGAAACUAGGAGCACCAUUUCGCUGCCAGUGAAGAAAUGAACAAGGAAAAUCUGGGCCAGGCAGGCAUCAAGAGAAAUAGUCUUGCGCUCAACCGGAAAGUCUGUAAUCAUUUUAAGGGUA, the self-cleavage is 0.44. GUUAACGGUCAAAGGCCAUGGAGACUAGGAGCGCCAUUUCGCUGCCAGUGAAGGAAUGAACAAAGAAAAUCUGGGCCAGGCAGGCAUCAAAAGAAAUAGUCUUGCGCUCAACCAGGAAGUCUGUAAUCAUCUUAAGGGUA: the self-cleavage amounted to 0.29. Turning to GUUAACGGUCUUAGGCCAUGGAAACUAGGAGCACCAUUUCGCUGCCAGUGAAGAAAUGAACAGAGAAAAUCUGGGCCAGGCAGGCAUCAAAAGAAGUAGUCUUGCGCUCAACCAGAAAGUCUGUAAUCAUUUUAAGGGUA, the self-cleavage was found to be 1.59.

For the variant GUUAACGGUCUUAGGCCAUGGAAACUAGGAGCACCAUUUCGCUGCCAGUGAAGAAAUGAACAAAGAAGAUCUGGGCCGGGCAGGCAUCAAAAGAAAUAGUCUUGCGCUCAACCGGAAAGUCUGUAAUCAUUUUAAGGGUA, the self-cleavage is 0.03.

With GUUAACGGUCUUAGGCCAUGGAAACUAGGAGCACCAUUUCGCUGCCAGUGAAGAAAUGAACAAAGAAAAUCUGGGCCAGGCAGGCACCAAAAGAAUUAGUCUUGCGCUCAACCAGAAAGUCUGUAAUCAUUUUAAGGGUA, the self-cleavage was found to be 1.78. Regarding GUUAACGGUCUUAGGCCAUGGAAACUAGGAGCACCAUUUCACUGCCAGUGAAGAAAUGAACAAAGAAGAUCUGGGCCAGGCAGGCAUCAAAAGAGAUAGUCUUGCGCUCAACCAGAAAGUCUGUAAUCAUUUUAAGGGUA, the self-cleavage turned out to be 1.7.

GUUAACGGUCUUAGGCCACGGAAACUAGGAGCACCAUUUCGCUGCCAGUGAAGAAAUGAACAAGGAAAAUCUGGGCCAGGCAGGCAUCAAAAGAAAUAGUCUUGCGCUCAACCAGAAGGUCUGUAAUCAUUUUAAGGGUA: the self-cleavage came out at 2.45. Take GUUAACGGUCUUAGGCCAUGGAAACUAGGAGCACCAUUUCGCCGCCAGUGAAGAAAUGAUCAAAGAAAAUCUGGGCCAGGCAGGCAUCAAAAGAAAUAGUCUCGCGCUCAACCAGAAAGUCUGUAAUCAUUUUAAGGGUA: the self-cleavage came out at 0.83. For the variant GUUAACGGUCUUAGGCCAUGGAAACUAGGAGCACCAUUUCGCUGCCAGUGAAGAAAUGAACAAAGAAAAUCUGGGCCCGGCAGGCAUCAAAAGAAAUAGUCUUGCGCCCAACCAGAAAGACUGUAAUCAUUUUAAGGGUA, the self-cleavage came to 0. The result for GUUAACGGUCUUAGGCCAUGGAAACUAGGAGCACCACUUCGCUGCCAGUGAAGAAAUGAACAAAGAAAGUCUGGGCCAGGCAGGCAUCAAAAGAAAUAGUCUUGCGCUCAACCAGAAAGUCUGUAAUCAUUUUAAGGGUA reads 0.58; that for GUUAACGGUCUUAGGCCAUGGAAACUAGGAGCACCAUUUCGCUGCCAGUGAAGAAAUGAAUAAAGAAAAUCUGUGCCAGGCAGGCAUCAAAAGAAAUAGUCUCGCGCUCAUCCAGAAAGUCUGUAAUCAUUUUAAGGGUA, 0.03.
